Data published in PubChem BioAssay AID463173 (ICCB-Longwood Screening Facility, Harvard Medical School, 2010).
The campaign covered roughly 52,000 compounds. About 4,300 (8.3%) were called active. Rule as the data show it: active = survival mostly below about 52% (no sharp cut-off); inactive = mostly above about 56%. The list shows a part of the results.

System: DeltatarO mutant
Test: S. aureus survival, RN4220 and DeltatarO strains – OD600, teichoic acid synthesis inhibitors, primary screen (AID 463173)
Settings: S. aureus RN4220 wild type/DeltatarO growth, OD600, 18 h, active compounds read low, screened at 18.75 µg/mL (by protocol)

Question: With `O=C(Nc1ccc(NC(=O)c2cc3ccccc3o2)cc1)c1ccccc1` as the compound, how does the survival read?
Answer: inactive: 86%

Question: For `COc1cccc(C2(O)CCN(CC(=O)N3CCCC3)CC2)c1`, which survival is on record?
Answer: inactive: 107%

Question: `O=C(CN1CCN(S(=O)(=O)c2cc(Cl)ccc2Cl)CC1)Nc1cccc(F)c1` was tested. Which survival did it give?
Answer: inactive: 92%

Question: With `Cn1cc(S(=O)(=O)c2ccc(Cl)cc2)c(=O)c2cc(F)c(N3CCCCCC3)cc21` as the compound, how does the survival read?
Answer: inactive: 83%

Question: Which survival does the source give for `CCOc1ccc(C2CC(=O)n3nc(-c4ccc(C)cc4)nc3S2)cc1OC` (stereo not drawn) here?
Answer: inactive: 116%

Question: How did the survival turn out when `Cc1cccnc1NCC(O)COc1ccccc1` (stereo not drawn) was run?
Answer: inactive: 88%

Question: `Fc1ccc(-c2nc(Nc3ccc(F)c(Cl)c3)nc3c2COc2ccccc2-3)cc1` was tested. Which survival did it give?
Answer: inactive: 55%

Question: How did the survival turn out when `CC(C(=O)Nc1cccc(C#N)c1)n1nc(-c2ccccc2)c2c(c1=O)CCCC2` (stereo not drawn) was run?
Answer: active: 20%

Question: With `CCOC(=O)C1CCCN(C(=O)c2ccc3c(c2)N(Cc2ccccc2)C(=O)c2ccccc2S3(=O)=O)C1` (stereo not drawn) as the compound, how does the survival read?
Answer: inactive: 60%

Question: With `CC1=C(C(=O)Nc2ccc(C)cc2C)C(c2ccccc2[N+](=O)[O-])n2ncc(C(=O)Nc3ccccc3)c2N1` (stereo not drawn) as the compound, how does the survival read?
Answer: inactive: 87%

Question: For `CS(=O)(=O)N(CC(=O)N1CCc2ccccc2C1)c1ccc(F)cc1`, which survival is on record?
Answer: inactive: 83%

Question: With `CCOc1ccc(NC(=O)c2ccc3c(SCC(=O)O)c4c(nc3c2)CCCC4)cc1` as the compound, how does the survival read?
Answer: inactive: 76%

Question: With `Cc1ccc(C(=O)N2CCc3cc(CNS(=O)(=O)c4ccc(Cl)s4)ccc32)cc1` as the compound, how does the survival read?
Answer: inactive: 67%

Question: How did the survival turn out when `Cc1ccc(C)c(N2CCN(C(=O)C3CCN(c4nc(-c5ccc(C(C)C)cc5)no4)CC3)CC2)c1` was run?
Answer: inactive: 80%

Question: Which survival does the source give for `COc1c(C)cc(S(=O)(=O)NCCc2c(C)[nH]c3ccccc23)c(C)c1C` here?
Answer: active: 59%

Question: With `CCOC(=O)c1cc(-c2ccccc2)n(-c2cccc(C(=O)Nc3ccc(F)c(F)c3)c2)c1C` as the compound, how does the survival read?
Answer: inactive: 87%

Question: How did the survival turn out when `COc1ccccc1CNC(=O)CCn1c(=O)c2ccccc2n(CC(=O)Nc2cccc(Cl)c2)c1=O` was run?
Answer: inactive: 78%

Question: Which survival does the source give for `Cc1c(NC(=O)c2cc(-c3ccc(Cl)c(Cl)c3)on2)c(=O)n(-c2ccccc2)n1C` here?
Answer: active: 38%

Question: How did the survival turn out when `Cc1ccc(CNC(=O)Cn2nc(C)n3cccc3c2=O)cc1` was run?
Answer: inactive: 89%

Question: How did the survival turn out when `O=C(O)CCn1nnc(-c2cccs2)n1` was run?
Answer: inactive: 103%

Question: For `Cc1ccc(-n2ncc(C(=O)N3CCN(c4cccc(C)c4)C(C)C3)c2C2CCN(C(=O)OC(C)(C)C)CC2)cc1` (stereo not drawn), which survival is on record?
Answer: inactive: 129%

Question: For `CCOc1ccc(N2CC(c3nc4ccccc4n3Cc3cccc(Cl)c3)CC2=O)cc1` (stereo not drawn), which survival is on record?
Answer: active: 37%

Question: How did the survival turn out when `Cc1c2cnn(CC(=O)N3CCN(c4ccc(F)cc4)CC3)c(=O)c2c(C)n1Cc1ccc(F)cc1` was run?
Answer: inactive: 68%

Question: How did the survival turn out when `O=C(NCc1ccc(Cl)cc1)c1cc(S(=O)(=O)N2CCCCC2)c[nH]1` was run?
Answer: inactive: 103%

Question: How did the survival turn out when `CCOc1ccc2nc(NC(=O)c3cc(=O)c4ccc(C)cc4o3)sc2c1` was run?
Answer: active: 25%

Question: `Cc1cc(C)cc(C(=O)Nc2ccc(-c3nc4ncccc4o3)cc2)c1` was tested. Which survival did it give?
Answer: inactive: 56%

Question: For `COc1cccc(N2CCN(C(=O)C(CCSC)NS(=O)(=O)c3ccc4c(c3)oc(=O)n4C)CC2)c1` (stereo not drawn), which survival is on record?
Answer: inactive: 106%

Question: For `CCc1ccc(CNC(=O)Cc2ccc(NC(=O)N3CCSc4ncccc43)cc2)cc1`, which survival is on record?
Answer: inactive: 94%

Question: For `CCOC(=O)CSc1nc2ccc(NC(=O)c3ccc(C)cc3)cc2s1`, which survival is on record?
Answer: inactive: 87%

Question: How did the survival turn out when `O=C(O)c1ccc2c(c1)ncn2-c1ccc(F)c(F)c1` was run?
Answer: inactive: 74%

Question: Which survival does the source give for `CCCc1cc(=O)n(-c2ccc(C(=O)O)cc2)[nH]1` here?
Answer: inactive: 81%

Question: For `OC1CN=C2C=CC=CN2C1` (stereo not drawn), which survival is on record?
Answer: inactive: 89%

Question: `CCOc1ccc(S(=O)(=O)NCC(c2ccco2)S(=O)(=O)c2cccs2)cc1` (stereo not drawn) was tested. Which survival did it give?
Answer: inactive: 93%

Question: For `CCOC(=O)c1ccc(NC(=O)CCCc2nc(-c3ccccc3Cl)no2)cc1`, which survival is on record?
Answer: active: 36%

Question: How did the survival turn out when `COc1ccc(OC)c(NC(=O)C2CCCN(S(=O)(=O)c3c(C)nn(C)c3C)C2)c1` (stereo not drawn) was run?
Answer: inactive: 86%

Question: Which survival does the source give for `Cc1ccc(NC(=O)c2cnn3c(C(F)F)cc(-c4ccccc4)nc23)c(C)c1` here?
Answer: inactive: 79%

Question: `COc1ccc(N2CCN(C(=O)CCc3c(C)nn(-c4ccc(N5CCCC5)nn4)c3C)CC2)cc1` was tested. Which survival did it give?
Answer: inactive: 91%

Question: Which survival does the source give for `Cc1ccc(NC(=O)Nc2nnc(N(CC(C)C)CC(C)C)s2)cc1Cl` here?
Answer: inactive: 87%

Question: Which survival does the source give for `Cc1ccc(S(=O)(=O)N(CC(=O)N2CCC(C(N)=O)CC2)c2ccccc2F)cc1` here?
Answer: inactive: 92%

Question: `Fc1ccc(-c2noc3ncnc(N4CCN(c5ccccc5)CC4)c23)cc1` was tested. Which survival did it give?
Answer: inactive: 89%

Question: Which survival does the source give for `COc1ccc(S(=O)(=O)N2CCN(c3ccccc3F)CC2)cc1-c1noc(C)n1` here?
Answer: inactive: 59%

Question: With `CCc1nc2c(Cl)cc(Cl)cc2c(=O)o1` as the compound, how does the survival read?
Answer: inactive: 86%

Question: For `Cc1ccccc1C(=O)N/C(=C/c1ccc(-c2cccnc2Cl)o1)C(=O)NC1CC1`, which survival is on record?
Answer: inactive: 106%

Question: How did the survival turn out when `O=C(NCc1ccc(F)cc1)c1ccc2c(Cl)c3c(nc2c1)CCCC3` was run?
Answer: inactive: 57%

Question: How did the survival turn out when `O=C(O)C1CCCCC1C(=O)N1CCCCCC1` (stereo not drawn) was run?
Answer: inactive: 77%

Question: For `COc1ccc(OC)c(NC(=O)c2cc3c(=O)oc4ccccc4c3s2)c1`, which survival is on record?
Answer: inactive: 62%

Question: With `Cc1cc2c(cc1S(=O)(=O)NCc1ccccc1Cl)OCCN2C` as the compound, how does the survival read?
Answer: inactive: 106%

Question: `CCN(CC)c1nn2c(=O)c(C(=O)NCCc3ccccc3)cnc2s1` was tested. Which survival did it give?
Answer: inactive: 72%

Question: For `Cc1ccc(C)c(NC(=O)c2ccc3c(O)c(S(=O)(=O)c4ccc(Cl)cc4)c(=O)[nH]c3c2)c1`, which survival is on record?
Answer: inactive: 66%

Question: With `CCCCSCCCNC(=O)CN1C(=O)c2cccnc2Oc2ccc(Cl)cc21` as the compound, how does the survival read?
Answer: inactive: 94%

Question: With `CCOc1ccc(-c2nonc2NC(=O)c2oc3cc(C)ccc3c2C)cc1` as the compound, how does the survival read?
Answer: inactive: 72%

Question: With `O=C(O)Cn1cc(C=C2C(=O)NC(=S)NC2=O)c2ccccc21` as the compound, how does the survival read?
Answer: inactive: 62%

Question: How did the survival turn out when `CCOc1ccc(CNC(=O)C2CCN(c3nnc(-n4cccc4CNc4ccc(C)cc4)s3)CC2)cc1OC` was run?
Answer: inactive: 82%

Question: With `CC(=O)Nc1ccc(S(=O)(=O)N2CCC(NC(C)=O)(c3cccc(F)c3)CC2)cc1` as the compound, how does the survival read?
Answer: inactive: 68%

Question: How did the survival turn out when `CCOC(=O)c1ccccc1NC(=O)C(=O)Nc1ccc2nc3n(c(=O)c2c1)CCCCC3` was run?
Answer: inactive: 93%

Question: Which survival does the source give for `CCc1cccc(-n2c(C)nc3c(cnn3-c3ccc(Cl)cc3)c2=O)c1` here?
Answer: active: -1%

Question: `CC(=O)N1CCOc2cc(S(=O)(=O)Nc3cccc(C(F)(F)F)c3)c(Cl)cc21` was tested. Which survival did it give?
Answer: inactive: 85%

Question: Which survival does the source give for `Cc1cn2c(=O)cc(COc3cccc(NC(=O)c4ccccc4C)c3)nc2s1` here?
Answer: inactive: 83%

Question: `COc1ccc(NC(=O)C2CCN(S(=O)(=O)c3ccc4[nH]c(=O)ccc4c3)CC2)c(OC)c1` was tested. Which survival did it give?
Answer: inactive: 94%

Question: For `CCOC(=O)c1[nH]c(C)c(CCC(=O)NCc2ccccc2)c1C`, which survival is on record?
Answer: inactive: 92%

Question: For `COc1ccc(OC)c(NC(=O)Cc2coc3ccc(C(C)C)cc23)c1`, which survival is on record?
Answer: inactive: 73%

Question: With `Cc1cc(C)cc(NC(=O)N2CCC(N3CCCCC3)CC2)c1` as the compound, how does the survival read?
Answer: inactive: 93%

Question: `N#CC(C#N)=C1CCCCCN1` was tested. Which survival did it give?
Answer: inactive: 73%

Question: How did the survival turn out when `N#Cc1c(-c2cccs2)cc(-c2cccs2)nc1SCc1cccnc1` was run?
Answer: inactive: 65%

Question: `COC(=O)C(C)Sc1nc2c([nH]c3ccccc32)c(=O)n1-c1ccc(OC)cc1` (stereo not drawn) was tested. Which survival did it give?
Answer: inactive: 64%

Question: For `Cc1cc(C)c2c(=O)cc(C(=O)Nc3ccc(S(=O)(=O)Nc4nc(C)cc(C)n4)cc3)oc2c1`, which survival is on record?
Answer: inactive: 103%

Question: How did the survival turn out when `Cc1ccc(NC(=O)NCc2cccn2Cc2ccccc2)cc1F` was run?
Answer: inactive: 60%

Question: How did the survival turn out when `Cc1ccc(-c2cn3c(n2)sc2cc(C(=O)N4CCCCC4)ccc23)cc1` was run?
Answer: inactive: 79%

Question: How did the survival turn out when `O=C(Nc1ccc2nc(SCC(=O)N3CCCC3)sc2c1)c1ccc(F)cc1` was run?
Answer: inactive: 85%

Question: `Cc1ccc(-n2ncc(C(=O)Nc3ccc(C)c(F)c3)c2C2CCN(C(=O)OC(C)(C)C)CC2)cc1C` was tested. Which survival did it give?
Answer: inactive: 122%

Question: With `Cc1nc2sc(C(=O)NCc3ccc(Cl)cc3)c(NC(=O)c3ccccc3)c2c(C)c1C` as the compound, how does the survival read?
Answer: inactive: 54%

Question: With `Cc1ccc(CNC(=O)CCCCn2c(=O)c3ccccc3n(Cc3ccc(Cl)cc3)c2=O)cc1` as the compound, how does the survival read?
Answer: inactive: 105%

Question: For `O=C(Cn1cc(/C=N/NC(=S)Nc2ccccc2)c2ccccc21)NCc1ccco1`, which survival is on record?
Answer: inactive: 82%

Question: For `CCC(C(=O)OCc1cc(=O)n2nc(CCOC)sc2n1)c1ccccc1` (stereo not drawn), which survival is on record?
Answer: inactive: 124%

Question: `Cc1ccccc1NC(=O)c1nc(-c2ccncc2)no1` was tested. Which survival did it give?
Answer: inactive: 46%

Question: For `COc1cccc(N2CCN(c3nc4ccc(C(=O)c5ccccc5)cc4n4c(C)nnc34)CC2)c1`, which survival is on record?
Answer: inactive: 102%

Question: `CC(C)OCCCNC(=O)CCCn1c(SCC(=O)c2ccc(Br)cc2)nc2c(sc3ccccc32)c1=O` was tested. Which survival did it give?
Answer: inactive: 74%

Question: Which survival does the source give for `COc1ccc(CNC(=O)c2cnn3c(C)c(Cc4ccc(F)cc4)c(C)nc23)cc1` here?
Answer: inactive: 80%

Question: How did the survival turn out when `Cc1cc(C)c(NC(=O)Cn2c(=O)n(CCCCC(=O)NCc3ccccc3Cl)c(=O)c3ccccc32)c(C)c1` was run?
Answer: inactive: 76%

Question: How did the survival turn out when `COc1cc(CN(CC2CCCO2)C(=O)c2ccccc2F)cc(OC)c1OC` (stereo not drawn) was run?
Answer: inactive: 70%

Question: For `COc1ccc(CNC(=O)CCCn2c(SCC(N)=O)nc3cc4c(cc3c2=O)OCO4)cc1`, which survival is on record?
Answer: inactive: 86%

Question: With `O=C(NCc1ccncc1)c1c(O)c2ccccc2[nH]c1=O` as the compound, how does the survival read?
Answer: inactive: 88%

Question: `Cc1cc(Nc2cccc(Cl)c2C)n2nc(Cc3ccccc3)nc2n1` was tested. Which survival did it give?
Answer: active: 49%

Question: Which survival does the source give for `CCOc1ccccc1NC(=O)Cn1c(=O)n(Cc2ccccc2)c(=O)c2c(C)c(C(=O)N(C)C)sc21` here?
Answer: inactive: 74%

Question: `CCN(CC)C(=O)CSc1nc2cc3c(cc2c(=O)n1Cc1ccc(C(=O)NCCc2ccc(OC)c(OC)c2)cc1)OCO3` was tested. Which survival did it give?
Answer: inactive: 78%

Question: Which survival does the source give for `COc1cc(Cl)c(C)cc1NC(=O)c1cn(CC(C)C)c(=O)c2cc(OC)c(OC)cc12` here?
Answer: active: 42%

Question: How did the survival turn out when `O=C(NNc1ncnc2c1cnn2-c1ccccc1)c1cccc(Cl)c1` was run?
Answer: inactive: 144%

Question: With `CC(C)Cn1c(=O)c2ccccc2n2c(-c3cccc(Cl)c3)nnc12` as the compound, how does the survival read?
Answer: inactive: 96%
